Reference: PubChem BioAssay AID894 (National Center for Advancing Translational Sciences (NCATS), 2007)
Where “and” joins values, the source holds several entries; their conditions need not be identical. Equal entries are not always repeated. Among all 150,000 compounds or so, about 6,500 (4.3%) were called active. The inconclusive results got no clear call from the source; some entries with a clear call stand among them for comparison. Calls follow the shape of the dose curve; as a rule, active = well fitted inhibition curve with a large enough effect (not every such curve was filed as active); inconclusive = small, poorly fitted or top-dose-only effect, or another doubt; inactive = no such curve, though single readings can be large or run the other way. A potency beside an inconclusive call is a rough fit, not a confirmed value.

Target: 15-hydroxyprostaglandin dehydrogenase [NAD(+)] (Homo sapiens) (UniProt P15428)
UniProt P15428, sequence (P15428 whole entry, looked up): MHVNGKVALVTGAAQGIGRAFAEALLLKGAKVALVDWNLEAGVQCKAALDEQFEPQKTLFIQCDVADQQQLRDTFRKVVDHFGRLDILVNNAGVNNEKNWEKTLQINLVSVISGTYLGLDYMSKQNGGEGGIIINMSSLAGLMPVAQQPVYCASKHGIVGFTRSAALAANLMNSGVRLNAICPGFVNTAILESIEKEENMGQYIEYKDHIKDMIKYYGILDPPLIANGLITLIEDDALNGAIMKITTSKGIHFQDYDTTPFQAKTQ
Test: qHTS Assay for Inhibitors of HPGD (15-Hydroxyprostaglandin Dehydrogenase)
Settings: purified HPGD, NADH fluorescence kinetic, PGE2 substrate; activity change, negative = inhibition: active compounds read low
Procedure, shortened: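 NADH formation kinetics: reaction with 30 uM PGE2 and 1 mM NAD+ (final), 20 nM enzyme, Tris-HCl pH 8 with Tween 20, after 15 min compound preincubation at room temperature. Fluorescence change, last versus first of five reads.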
% is scaled to controls: 0 for no effect and ±100 for the full control effect; potency is read from the fitted curve at half-maximal effect; tags tell the direction and shape of the fitted curve.

Potency, inconclusive:
CC1CN(S(=O)(=O)c2cccc(-c3cn4cccnc4n3)c2)CC(C)O1 (configuration not stated) 1.26 µM [inhibitor, full curve], CCCc1cc(=O)oc2c(C)c(O)c(CN3CCCCC3)cc12 3.55 µM [inhibitor, partial curve], CCOC(=O)c1c(-c2ccc(C)s2)csc1NC(=O)c1cccs1 35.5 µM [inhibitor, partial curve], COc1cc(/C=C/C(=O)OCC(=O)NC(=O)NC(C)(C)C)ccc1OCC#N 20 µM [inhibitor, partial curve], COc1cc2[nH]c(=O)n3nc(-c4ccccc4)nc3c2cc1OC 22.4 µM [inhibitor, partial curve], COc1cc2c(cc1OC)C(c1cc3cc4c(cc3[nH]c1=O)OCO4)N(C(=O)C1CC1)CC2 (configuration not stated) 31.6 µM [inhibitor, single point], CSc1ccc(-c2cc(=O)c3ccccc3o2)cc1 17.8 µM [inhibitor, partial curve], CCN(CC)CCCn1c(-c2ccccc2)nc2c(N3CCOCC3)nc(C)nc21 28.2 µM [inhibitor, partial curve], COC(=O)c1cccc(NC(=O)C2C3CCC(C3)C2C(=O)O)c1 (configuration not stated) 31.6 µM [inhibitor, partial curve], O=C(CC1Sc2ccccc2NC1=O)OCc1cc(=O)oc2cc(O)ccc12 (configuration not stated) 39.8 µM [inhibitor, single point], CC(C)c1ccc(Cn2ccc3c4c(N)nc(NC5CC5)nc4ccc32)cc1 35.5 µM [inhibitor, single point], COC(=O)Nc1ccc(Oc2ccccc2)cc1 25.1 µM [inhibitor, single point], Cc1cccc(NC(=O)CNC(=O)COc2ccc(-c3ccc(C#N)cc3)cc2)c1C 25.1 µM [inhibitor, partial curve], COCCNC(=O)c1cc(-c2cccs2)on1 31.6 µM [inhibitor, single point], Cc1no[n+]([O-])c1COc1ccccc1/C=C1\NC(=S)NC1=O 17.8 µM [inhibitor, partial curve], O=C(CN1C(=O)C2CC=CCC2C1=O)Nc1nnc(SCc2c(Cl)cccc2Cl)s1 (configuration not stated) 2.51 µM [inhibitor, full curve], Cc1cc(/C=N/n2cnnc2)c(C)n1-c1ccc(OCc2ccccc2F)cc1 15.8 µM [inhibitor, partial curve], O=C(Nc1ccc2nc(-c3ccco3)[nH]c2c1)c1cccs1 20 µM [inhibitor, partial curve], COc1ccc(/C=C/C(=O)Nc2nc(C)c(C(=O)N(C)C)s2)cc1OC 31.6 µM [inhibitor, single point], COc1cc(/C=N/NC(=O)c2cccnc2)ccc1OCC(=O)Nc1ccc(C)cc1 31.6 µM [inhibitor, partial curve], CCCCc1cc(=O)oc2c(CN3CCCC3)c(O)ccc12 3.55 µM [inhibitor, partial curve], Cc1cc(-c2ccc(/C=N/n3cnnc3)o2)ccc1Cl 25.1 µM [inhibitor, partial curve], COc1cc(OC)cc(C(=O)Oc2ccc(/C=N/Nc3nc4ccccc4s3)cc2OC)c1 28.2 µM [inhibitor, partial curve], O=C(O)COc1cccc2nsnc12 22.4 µM [inhibitor, partial curve], O=C(N/N=C\c1ccc(-c2ccc(Cl)c(Cl)c2)o1)C(=O)N1CCCC1 22.4 µM [inhibitor, partial curve], COc1ncc2ncc(=O)n(Cc3cccs3)c2n1 12.6 µM [inhibitor, partial curve], COc1ccc(C(=O)Nc2ccc(-c3ccc(NC(=O)c4ccc(OC)cc4)c(OC)c3)cc2OC)cc1 20 µM [inhibitor, partial curve], Nc1c(C(=O)Nc2nccs2)sc2nc(-c3cccs3)cc(C(F)(F)F)c12 10 µM [inhibitor, partial curve], COc1ccc2c(c1)CCc1sc(NC(=O)c3ccc(C)cc3)nc1-2 35.5 µM [inhibitor, single point], COc1ccccc1[C@H]1C(c2cccc(Cl)c2)=NN(c2ccccc2)[C@@H]1CO 39.8 µM [inhibitor, partial curve], CN(C)C=NC(=O)c1ccc(N2CCN(c3ncc(C(F)(F)F)cc3Cl)CC2)cc1 8.91 µM [inhibitor, partial curve], CSc1nnc(-c2ccc(S(=O)(=O)N3CCCC3)cc2)n1C 28.2 µM [inhibitor, partial curve], Cc1cc(NCc2ccccc2)nc2ccccc12 31.6 µM [inhibitor, partial curve], Cc1ccc(-c2noc(-c3cc4ccccc4oc3=O)n2)cc1 39.8 µM [inhibitor, partial curve], CN(C)CCNc1oc(-c2ccccc2F)nc1C#N 28.2 µM [inhibitor, partial curve], CCOC(=O)CSc1nc2ccc(Nc3nc(N4CCOCC4)nc(N4CCOCC4)n3)cc2s1 17.8 µM [inhibitor, partial curve], Oc1ccc2ccccc2c1C=Nc1ccccc1-c1nc2ccccc2[nH]1 14.1 µM [inhibitor, partial curve], COc1ccc(/C=N/NC(=O)c2ccc3ccccc3c2)cc1OS(=O)(=O)c1ccc(NC(C)=O)cc1 35.5 µM [inhibitor, partial curve], N=c1c(S(=O)(=O)c2ccccc2)cc2c(=O)n3ccccc3nc2n1CC1CCCO1 (configuration not stated) 28.2 µM [inhibitor, partial curve], CCc1cc2c(SCC(=O)c3cccs3)ncnc2s1 22.4 µM [inhibitor, partial curve, poor fit]

Potency, active:
CC1(C)Cc2nc3sc4c(SCC(=O)NCc5ccco5)ncnc4c3cc2CO1 14.1 µM, Cc1ccccc1OCc1nc2ccccc2c(=O)n1/N=C/c1cn[nH]c1-c1ccc(Br)cc1 31.6 µM, CCOC(=O)/C(C#N)=C1/C=CN(C)C=N1 25.1 µM, COc1ccc(C(=O)c2c(C)oc3cc([N+](=O)[O-])c(O)c([N+](=O)[O-])c23)cc1 14.1 µM, CCCCC(=O)Nc1ccc(C(=O)N2CCN(C)CC2)cc1 14.1 µM, COc1cc(OC)c(C2CC(=O)N3CN(C)CSC3=C2C#N)cc1OC (configuration not stated) 8.91 µM, Cc1nc(SCC(=O)Nc2nc3ccccc3s2)c(C#N)c(C)c1C 28.2 µM, Nc1nc(Sc2ccc([N+](=O)[O-])c3nonc23)c2[nH]cnc2n1 1.26 µM, Oc1c(C(c2cccs2)N2CCN(c3ccccc3)CC2)ccc2cccnc12 (configuration not stated) 1.78 µM, c1ccc(-c2nn3c(Cn4cnc5ccccc54)nnc3s2)cc1 4.47 µM, CCCCS(=O)(=O)Nc1ccc(Cc2ccncc2)cc1 15.8 µM, Nc1c(N=Nc2ccc(-c3ccc(N=Nc4cc(S(=O)(=O)O)c5ccccc5c4N)cc3)cc2)cc(S(=O)(=O)O)c2ccccc12 15.8 µM, CN(c1ccccc1)c1ccc(/C=C/[N+](=O)[O-])cc1 31.6 µM, CCOc1ccc(NC(=O)Cc2ccccc2)cc1 12.6 µM, N#C/C(C(=O)c1ccccc1)=C1/SC=C(N)N1c1ccccc1 20 µM, CC1(C)CC(=O)C(C(C2=C(O)CC(C)(C)CC2=O)c2ccco2)C(=O)C1 (configuration not stated) 10 µM, Cc1cc(C(=O)NCc2cccs2)cs1 28.2 µM, CCc1[nH]c(=S)c(C#N)c2c1CCCC2 20 µM, O=C(O)C1CC(=O)N(c2ccc(OCc3c(F)cccc3Cl)cc2)C1 (configuration not stated) 1.58 µM

Activity change, negative = inhibition, inactive:
CCn1c(SCC(=O)NCc2ccc3c(c2)OCO3)nnc1-c1c[nH]c2ccccc12 -5.23%, CN1CCCN(C2C3CC4CC(C3)CC2C4)CC1 (configuration not stated) 3.36%, O=C(Nc1cccc(Cl)c1)N1CCCC1 -4.59%, NC(=O)Nc1ccc(C(=O)OCC(=O)Nc2ccc([N+](=O)[O-])cc2C(F)(F)F)cc1 -15.9%, CN(C)CCN(C(=O)c1cccc(Cl)c1)c1nc2c(Cl)cccc2s1 -13%, C/C(Cl)=C/Cn1c(N2CCCC2)nc2c1c(=O)n(C)c(=O)n2C 1.13%, CCCCP(=O)(CCCC)c1ccccc1C(=O)O -8.51%, CCCCNc1c(C(=O)OCC)c(C)nc2c1cnn2CC -8.36% and -7.57% and -11.6%, C=CCn1c(COc2cccc(C)c2)nnc1SCC(=O)NC(=O)NCc1ccco1 -11.6%, COc1ccc(C2=C(Nc3ccc(C)cc3)c3ccccc3C2=O)cc1 -5.72%, CCCOCn1cc(F)c(=O)[nH]c1=O 7.28%, COc1cc(/C=N/NC(=O)c2ccc(F)cc2)ccc1OC(=O)c1ccco1 -13.6%, CC(N)=NCCC[C@H](N)C(=O)O 1.69%
